{"source": "PubChem BioAssay AID463254", "about": "(National Center for Advancing Translational Sciences (NCATS), 2010)", "note": "Out of some 330,000 compounds screened, about 40 (0.01%) were called active. The shares of active, inactive and inconclusive entries below differ from those in the screen. Calls come from the whole dose curve; as a rule, active = well fitted inhibition curve with a large enough effect; inconclusive = small, poorly fitted or top-dose-only effect, or effect the other way; inactive = flat fitted curve, though single readings scatter. Potencies beside an inconclusive call are fits to weak or partial responses and may not hold up. Potency is the fitted concentration of half-maximal effect; tags give direction and shape of the fitted curve or compound fluorescence and quenching.", "data": [{"molecular_target": "Ubiquitin carboxyl-terminal hydrolase 2 (Homo sapiens) (UniProt O75604)", "sequence (O75604 whole entry, looked up)": "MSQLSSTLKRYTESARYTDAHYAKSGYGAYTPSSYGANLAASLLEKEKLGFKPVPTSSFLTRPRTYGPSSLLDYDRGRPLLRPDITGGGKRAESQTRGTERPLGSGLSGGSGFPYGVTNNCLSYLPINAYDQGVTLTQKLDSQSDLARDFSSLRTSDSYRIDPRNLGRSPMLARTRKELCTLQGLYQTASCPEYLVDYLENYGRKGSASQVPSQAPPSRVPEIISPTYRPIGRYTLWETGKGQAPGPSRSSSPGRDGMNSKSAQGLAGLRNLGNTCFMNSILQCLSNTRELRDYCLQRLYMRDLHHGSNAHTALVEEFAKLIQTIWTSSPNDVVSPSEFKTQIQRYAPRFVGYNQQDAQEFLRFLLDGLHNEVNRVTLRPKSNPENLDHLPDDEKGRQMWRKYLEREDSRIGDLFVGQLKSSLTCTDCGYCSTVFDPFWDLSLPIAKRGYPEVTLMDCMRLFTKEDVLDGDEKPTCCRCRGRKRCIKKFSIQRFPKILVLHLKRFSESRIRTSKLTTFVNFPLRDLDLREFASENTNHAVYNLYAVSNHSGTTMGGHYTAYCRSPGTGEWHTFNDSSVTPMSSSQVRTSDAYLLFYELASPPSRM", "assay": "qHTS Assay for Inhibitors of Ubiquitin-specific Protease USP2a Using CHOP2 as the Reporter;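 for activity change, negative = inhibition: plate controls were DMSO wells for no effect and full inhibition by NEM control for full effect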", "conditions": "USP2 core, Ub-CHOP2 coupled fluorogenic reporter, 485/531; activity change, negative = inhibition: at 38.3 µM (top of the series)", "how_it_was_run": "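Deubiquitinase activity read as fluorescence (485/531 nm) after Ub-CHOP2 cleavage activates the enterokinase reporter on its substrate; USP2 core 10nM, Ub-CHOP2 and substrate 25nM each, 30min compound preincubation then 60min RT; data normalized to NEM, curves fitted.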", "values": [{"smiles": "CCCc1cc(=O)oc2cc(C)c(CN3CCCC3)c(O)c12", "Potency": "inconclusive: 28.2 µM [falling, single point]"}, {"smiles": "O=c1[nH]c2c(s1)C=Nc1ccccc1N2", "Potency": "inconclusive: 11.2 µM [fluorescent, single point]"}, {"smiles": "COc1ccccc1NC(=O)c1sc2nc(N3CCOCC3)c3c(c2c1N)CCCC3", "activity change, negative = inhibition": "inactive: 0.891%"}, {"smiles": "O=C(/C=N/O)NCc1cccnc1", "Potency": "inconclusive: 3.55 µM [falling, single point]"}, {"smiles": "O=C(O)CC(C(=O)O)N1C(=O)/C(=C/C=C/c2ccco2)SC1=S", "note": "(configuration not stated)", "Potency": "inconclusive: 15.8 µM [falling, single point]"}, {"smiles": "COc1cc(CNCCc2ccc(S(N)(=O)=O)cc2)ccc1OCc1ccc(Cl)cc1", "activity change, negative = inhibition": "inactive: -1.6%"}, {"smiles": "O=C(O)CCCNc1cc(N2CCC3(CC2)OCCO3)c2noc3c2c1C(=O)c1ccccc1-3", "Potency": "inconclusive: 28.2 µM [fluorescent, single point]"}, {"smiles": "Cc1ccc(NC(=O)COC(=O)c2ccc3c(c2)NC(=O)C2CCCN32)cc1C", "note": "(configuration not stated)", "Potency": "inconclusive: 12.6 µM [falling, single point]"}, {"smiles": "N#C/C(=C/c1ccc(N2CCOCC2)o1)c1nc2ccccc2[nH]1", "Potency": "inconclusive: 11.2 µM [fluorescent, partial curve]"}, {"smiles": "O=C(CSc1ncn[nH]1)Nc1ccc(Br)cc1F", "Potency": "inconclusive: 28.2 µM [falling, single point]"}, {"smiles": "CCN(CC)c1ccc(-c2nn3c(-c4n[nH]c5c4CCC5)nnc3s2)cc1", "activity change, negative = inhibition": "inactive: 2.85%"}, {"smiles": "CN1CCN(NS(=O)(=O)c2ccc(Cl)cc2)CC1", "activity change, negative = inhibition": "inactive: 2.77%"}, {"smiles": "CCCN(C(=O)c1cccs1)c1nnc(-c2ccncc2)s1", "activity change, negative = inhibition": "inactive: -0.42%"}, {"smiles": "N#CC(C(=O)NC1CC1)c1nc2ccccc2nc1N1CCCC1", "note": "(configuration not stated)", "Potency": "inconclusive: 22.4 µM [fluorescent, single point]"}, {"smiles": "COc1ccc(OC)c(Nc2ccc(Nc3cc(OC)ccc3OC)nn2)c1", "Potency": "inconclusive: 14.1 µM [falling, single point]"}, {"smiles": "CCOc1ccc(NC(=O)CCC(=O)NNS(=O)(=O)c2ccccc2[N+](=O)[O-])cc1", "Potency": "inconclusive: 0.282 µM [fluorescent, full curve]"}, {"smiles": "O=C(NCCCN1CCCC1=O)c1cccc(N2CCCC2=O)c1", "Potency": "inconclusive: 28.2 µM [falling, single point]"}, {"smiles": "CCOC(=O)c1[nH]c2ccc(OC)cc2c1NC(=O)CCN1CCC(C)CC1", "Potency": "inconclusive: 28.2 µM [falling, single point]"}, {"smiles": "Cc1sc(NC(=O)c2ccco2)c(CN2CCN(c3ccccc3)CC2)c1C", "Potency": "inconclusive: 28.2 µM [falling, single point]"}, {"smiles": "Fc1ccc(/C=N/NC(=S)Nc2cccnc2)cc1", "activity change, negative = inhibition": "inactive: -5.26%"}, {"smiles": "CCOC(=O)N1CCN(C(=O)CN(c2ccc(C)c(C)c2)S(=O)(=O)c2ccccc2)CC1", "Potency": "inconclusive: 22.4 µM [falling, single point]"}, {"smiles": "Nc1c(C(=O)Nc2ccccc2F)sc2nc(Cc3ccccc3)cc(C(F)(F)F)c12", "Potency": "inconclusive: 28.2 µM [fluorescent, single point]"}, {"smiles": "Cc1ccc(/C=C2/SC(=S)N(c3ccc(S(=O)(=O)Nc4nccs4)cc3)C2=O)cc1", "Potency": "inconclusive: 28.2 µM [falling, single point]"}, {"smiles": "COC(=O)c1ccccc1NC(=O)CSc1nc(O)cc(=O)n1C1CCCC1", "Potency": "inconclusive: 28.2 µM [falling, single point]"}, {"smiles": "CCOc1ccc(NC(=O)N(CCCN2CCOCC2)Cc2cccnc2)cc1", "Potency": "inconclusive: 5.01 µM [falling, single point]"}, {"smiles": "Cc1cccc(NCc2nc(-c3ccccc3)no2)c1", "Potency": "inconclusive: 28.2 µM [falling, single point]"}, {"smiles": "Cc1cc(-c2cc(-c3ccc(Cl)cc3)on2)nc(NC2CCCC2)n1", "Potency": "inconclusive: 25.1 µM [fluorescent, partial curve]"}, {"smiles": "Cc1ccc(C)n1-c1ccccc1N", "Potency": "inconclusive: 15.8 µM [fluorescent, single point]"}, {"smiles": "C[c-]1[c-](C)[c-](C)[c-](C)[c-]1C.[Fe].c1cc2nccc(N3CCCC3)[c-]2c1", "note": "(configuration not stated)", "Potency": "inconclusive: 28.2 µM [fluorescent, single point]"}, {"smiles": "CC(=O)OCC(=O)Nc1ccc(Cl)cc1Cl", "Potency": "inconclusive: 5.01 µM [falling, single point]"}, {"smiles": "O=C(O)c1cc(O)c2c(c1)[C@@H]([C@H]1c3cc(C(=O)O)cc(O)c3C(=O)c3c(O[C@@H]4O[C@H](CO)[C@@H](O)[C@H](O)[C@H]4O)cccc31)c1cccc(OC3O[C@H](CO)[C@@H](O)[C@H](O)[C@H]3O)c1C2=O", "note": "(some centres not stated)", "Potency": "active: 3.16 µM"}, {"smiles": "COc1ccc2c(Cl)c(C(=O)N/N=C3\\CCCC(=O)C3)sc2c1", "Potency": "inconclusive: 11.2 µM [fluorescent, partial curve]"}, {"smiles": "O=C(CCS(=O)(=O)c1ccc(Br)s1)NC1CCCC1", "Potency": "inconclusive: 22.4 µM [falling, single point]"}, {"smiles": "CC(NC(=O)c1ccccc1NS(C)(=O)=O)c1ccccc1", "note": "(configuration not stated)", "activity change, negative = inhibition": "inactive: 0.377%"}, {"smiles": "CC1CCCCC12NC(=O)N(CC(=O)Nc1ccc(Cl)c(S(=O)(=O)N3CCOCC3)c1)C2=O", "note": "(configuration not stated)", "activity change, negative = inhibition": "inactive: 0.799%"}, {"smiles": "COC(=O)C1=COC(C)C2CN3CCc4c([nH]c5cc(OC)c(OC)cc45)C3CC12", "note": "(configuration not stated)", "Potency": "inconclusive: 31.6 µM [fluorescent, partial curve, poor fit]"}, {"smiles": "N#CNC(=Nc1cccc(F)c1)SCc1cccc(F)c1", "Potency": "inconclusive: 22.4 µM [falling, single point]"}, {"smiles": "CN(C)CCNC(=O)C(c1ccccc1)c1ccccc1", "activity change, negative = inhibition": "inactive: 1.13%"}, {"smiles": "CCOc1ccccc1C(=O)N[C@H](C(=O)Nc1ccc(OC)c(S(=O)(=O)N2CCOCC2)c1)C(C)C", "Potency": "inconclusive: 28.2 µM [falling, single point]"}, {"smiles": "COc1cc(OC)c(-c2c3cc(O)c(=O)cc-3oc3cc(O)c(O)cc23)cc1OC", "Potency": "inconclusive: 11.2 µM [fluorescent, partial curve]"}, {"smiles": "CCCN1C(=O)S/C(=C/c2ccc(N3CCOCC3)o2)C1=O", "Potency": "inconclusive: 12.6 µM [fluorescent, partial curve]"}, {"smiles": "Cc1cc(O)cc2c1C(=O)/C(=C/c1ccco1)O2", "Potency": "inconclusive: 12.6 µM [fluorescent, partial curve]"}, {"smiles": "O=C(OCc1ccccc1)C1CCCN1C(=O)c1cccs1", "note": "(configuration not stated)", "Potency": "inconclusive: 22.4 µM [falling, single point]"}, {"smiles": "O=C(Nc1cccc(N=Cc2cc(Br)cc(Br)c2O)c1)c1ccco1", "activity change, negative = inhibition": "inactive: 5.5%"}, {"smiles": "CCC(=O)N1c2ccccc2[C@@H](N(C(C)=O)c2ccccc2)C[C@H]1C", "activity change, negative = inhibition": "inactive: 2.25%"}, {"smiles": "N#CC(C#N)=C1C=C2C=C(N3CCCCC3)CCC2CC1", "note": "(configuration not stated)", "Potency": "inconclusive: 5.01 µM [fluorescent, partial curve]"}, {"smiles": "CC1C/C(=C/c2cccn2C)C(=O)/C(=C/c2cccn2C)C1", "note": "(configuration not stated)", "Potency": "inconclusive: 11.2 µM [fluorescent, single point]"}, {"smiles": "O=C(C1CCN(S(=O)(=O)c2ccccc2)CC1)N1CCc2ccccc21", "Potency": "inconclusive: 11.2 µM [fluorescent, partial curve]"}, {"smiles": "Cc1sc(-c2ccccn2)nc1OC(=O)c1ccc(Cl)c(Cl)c1", "activity change, negative = inhibition": "inactive: 0.0753%"}, {"smiles": "O=C(Nc1cccc(NC(=O)c2cccnc2)c1)c1ccccc1", "activity change, negative = inhibition": "inactive: 2.26%"}, {"smiles": "COc1ccccc1C1NC(c2ccccc2OC)C(C)C(=O)C1C", "note": "(configuration not stated)", "Potency": "inconclusive: 5.01 µM [falling, single point]"}, {"smiles": "O=C1/C(=C/c2ccco2)Oc2c1ccc(O)c2CN1CCCCC1", "Potency": "inconclusive: 14.1 µM [fluorescent, single point]"}, {"smiles": "COc1ccccc1NS(=O)(=O)c1cc(NC(=O)C(C)NC(N)=O)ccc1N1CCCC1", "note": "(configuration not stated)", "activity change, negative = inhibition": "inactive: 0.0313%"}, {"smiles": "O=c1[nH]c(-[n+]2ccccc2)c(/C=N/NC([S-])=Nc2ccccc2)s1", "Potency": "inconclusive: 7.94 µM [fluorescent, partial curve]"}, {"smiles": "CCC(c1nnnn1Cc1ccco1)N(CCc1ccccc1)Cc1cc2cc(C)ccc2[nH]c1=O", "note": "(configuration not stated)", "activity change, negative = inhibition": "inactive: -4.59%"}, {"smiles": "COc1cccc(NC(=O)Cc2ccccc2)c1", "Potency": "inconclusive: 12.6 µM [falling, single point]"}, {"smiles": "CCCCNc1nc2ccccc2nc1NS(=O)(=O)c1cccs1", "Potency": "inconclusive: 5.01 µM [falling, single point]"}, {"smiles": "Cc1cc(C(C)(C)CC(C)(C)C)ccc1OCCOCC[N+](C)(C)Cc1ccccc1", "Potency": "inconclusive: 28.2 µM [falling, single point]"}, {"smiles": "COCCNC(=O)/C(C#N)=C/c1ccc(N2CCOCC2)o1", "Potency": "inconclusive: 10 µM [fluorescent, single point]"}, {"smiles": "Cc1cccc(N2C(=O)c3cccc4c(N(C)CCO)ccc(c34)C2=O)c1", "Potency": "inconclusive: 10 µM [fluorescent, partial curve]"}, {"smiles": "CC(C)C(=O)Nc1ccc(C(=O)N2CCCCCC2)cc1", "Potency": "inconclusive: 3.55 µM [falling, single point]"}, {"smiles": "NC(N)=Nc1nc(C2COc3ccccc3O2)cs1", "note": "(configuration not stated)", "activity change, negative = inhibition": "inactive: -0.241%"}, {"smiles": "CN(C)c1ccc2c(c1)OC(N)=C(C#N)C2c1cccc(F)c1", "note": "(configuration not stated)", "Potency": "inconclusive: 11.2 µM [fluorescent, single point]"}, {"smiles": "N#CC(C(=O)NCCc1ccccc1)c1nc2ccccc2nc1N1CCOCC1", "note": "(configuration not stated)", "Potency": "inconclusive: 22.4 µM [fluorescent, single point]"}, {"smiles": "CS(=O)(=O)Oc1ccc2c(c1)O/C(=C\\C=C\\c1ccccc1)C2=O", "Potency": "inconclusive: 28.2 µM [fluorescent, single point]"}, {"smiles": "N#Cc1c(-c2cccs2)nc(SCc2ccc(Cl)cc2)[nH]c1=O", "Potency": "inconclusive: 22.4 µM [falling, single point]"}, {"smiles": "COc1cccc(NC(=O)CSc2nncn2-c2ccccn2)c1", "Potency": "inconclusive: 28.2 µM [falling, single point]"}]}]}
